Hit rate of the full screen: of about 360,000 compounds, about 25,000 (6.9%) were called active. The inconclusive results got no clear call from the source; some entries with a clear call stand among them for comparison. Calls come from the whole dose curve; as a rule, active = well fitted inhibition curve with a large enough effect; inconclusive = small, poorly fitted or top-dose-only effect; inactive = flat fitted curve, though single readings scatter. Where the call is inconclusive, the potency comes from a doubtful curve fit.
Molecular target: Luciferin 4-monooxygenase (Photinus pyralis) (UniProt P08659)
Sequence of UniProt P08659 (P08659 whole entry, looked up): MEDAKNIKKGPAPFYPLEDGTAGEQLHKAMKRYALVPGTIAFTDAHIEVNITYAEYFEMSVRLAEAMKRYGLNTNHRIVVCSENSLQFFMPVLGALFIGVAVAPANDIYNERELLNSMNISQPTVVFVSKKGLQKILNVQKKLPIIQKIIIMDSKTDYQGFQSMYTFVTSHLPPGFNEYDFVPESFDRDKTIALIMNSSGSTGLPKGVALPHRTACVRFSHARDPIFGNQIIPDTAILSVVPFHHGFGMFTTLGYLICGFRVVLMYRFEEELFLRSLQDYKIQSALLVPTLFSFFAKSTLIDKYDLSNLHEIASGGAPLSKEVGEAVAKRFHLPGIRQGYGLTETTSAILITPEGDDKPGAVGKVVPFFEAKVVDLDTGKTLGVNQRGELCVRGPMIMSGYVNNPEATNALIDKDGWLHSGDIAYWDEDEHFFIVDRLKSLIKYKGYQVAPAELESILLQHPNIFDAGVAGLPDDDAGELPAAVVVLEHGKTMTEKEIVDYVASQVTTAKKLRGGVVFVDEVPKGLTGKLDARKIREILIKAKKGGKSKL
Test: qHTS profiling assay for firefly luciferase inhibitor/activator using purifed enzyme and Km concentrations of substrates (counterscreen for miR-21 project); note: nearly all actives have a fitted effect of over 55% in size
Conditions: purified FLuc, luminescence inhibition; series mostly up to 57.5 µM
In short: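 Purified P. pyralis luciferase (10nM final) with 10uM D-luciferin and 10uM ATP (Km levels) in 50mM Tris acetate pH 7.5, 10mM Mg acetate, 0.01% Tween-20, 0.05% BSA; qHTS 6-point titration, ~60 µM downward; luminescence read.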
Potency is the fitted concentration of half-maximal effect; tags give direction and shape of the fitted curve.

Compound | Potency
O=C(Cn1cc(S(=O)(=O)Cc2cccc(Cl)c2)c2ccccc21)Nc1ccccc1Cl | inactive
O=c1c(Cl)c(NCc2ccc(F)cc2Cl)cnn1C12CC3CC(CC(C3)C1)C2 | inconclusive: 9.53 µM [inhibitor, partial curve]
O=C(Nc1nc2ccccc2[nH]1)c1cccc(S(=O)(=O)N2CCOCC2)c1 | inconclusive: 21.3 µM [inhibitor, partial curve, poor fit]
COc1cc2ncc(C(=O)c3ccc(C)cc3)c(N3CCCCC3)c2cc1OC | inconclusive: 37.9 µM [inhibitor, partial curve, poor fit]
O=C(COc1ccccc1)N/N=C/c1ccc2c(c1)OCO2 | inconclusive: 16.9 µM [inhibitor, partial curve, poor fit]
Cc1ccc2nc(NC(=O)c3ccc(N4C(=O)CCC4=O)cc3)sc2c1 | inconclusive: 21.3 µM [inhibitor, partial curve]
COc1ccc(CC(=O)NCc2ccc3c(c2)CCN3C(C)=O)cc1 | inactive
CC(C)NC(=O)C(C)N1CCN(S(=O)(=O)c2ccc3ccccc3c2)CC1 (stereo not given) | inactive
CC(=O)c1ccc(N2C(=O)[C@@H]3C(C(=O)CCN4C(=O)c5ccccc5C4=O)=NN[C@@H]3C2=O)cc1 | inconclusive: 19 µM [inhibitor, single point]
Brc1ccc(OCc2nc(-c3ccccn3)n[nH]2)cc1 | inconclusive: 30.1 µM [inhibitor, single point]
COc1ccc(CCNC(=O)Nc2cccs2)c(OC)c1 | inconclusive: 23.9 µM [inhibitor, partial curve]
Nc1nc(SCC(=O)Nc2ccccc2)nc2nc3c(cc12)CCCC3 | inconclusive: 2.39 µM [inhibitor, partial curve, poor fit]
CC(C)C(=O)NC(=S)Nc1sc2c(c1C(N)=O)CCCC2 | active: 9.53 µM
COc1ccc(Nc2nc(NCc3ccco3)nc(N/N=C/c3ccccc3)n2)cc1 | inconclusive: 16.9 µM [inhibitor, partial curve, poor fit]
COc1ccc(CCNC(=O)C(=O)Nc2ccc3nc4n(c(=O)c3c2)CCCCC4)cc1OC | inconclusive: 19 µM [inhibitor, partial curve]
CCCCNc1ccc(-c2nc(-c3ccco3)no2)cc1[N+](=O)[O-] | inconclusive: 10.7 µM [inhibitor, partial curve]
COc1cc(/C=N/NC(=S)Nc2cccnc2)cc(OC)c1OC | inconclusive: 16.9 µM [inhibitor, partial curve]
CC(=O)c1cccc(NC(=O)C(=O)c2cn(CC(=O)N3CCCCC3)c3ccccc23)c1 | active: 8.49 µM
Clc1cc2c(cc1/C=N/Nc1nc(N3CCOCC3)nc(N3CCOCC3)n1)OCO2 | inactive
COc1ccc(C2Nc3cccc4cccc(c34)N2)cc1Br | inconclusive: 37.9 µM [inhibitor, single point]
CCn1cc(/C=N/NC(=O)c2ccc(C#N)cc2F)c2ccccc21 | inconclusive: 26.9 µM [inhibitor, single point]
CC(=O)c1cccc(NC(=O)C2CCCN(C(=O)c3cnn(-c4ccccc4)c3-n3cccc3)C2)c1 (stereo not given) | inactive

Compound | Potency
CCC(CC)C(=O)Nc1ccc(C(=O)c2ccccc2)cc1 | inconclusive: 23.9 µM [inhibitor, single point]
COc1ccc(-c2cc(-c3ccccc3)nc(Cl)n2)cc1OC | inconclusive: 19 µM [inhibitor, partial curve]
O=C(Nc1ccc(N2CCN(C(=O)c3ccc(Cl)cc3)CC2)cc1)c1ccc2c(c1)OCCO2 | inconclusive: 13.5 µM [inhibitor, partial curve, poor fit]
CC(C)(C)c1ccc(OCC(=O)NNC(=S)NC(=O)c2ccccc2[N+](=O)[O-])c(Br)c1 | active: 26.9 µM
O=C(c1ccc(OCC2CCCO2)cc1)N1CCc2ccccc2C1 (stereo not given) | inconclusive: 37.9 µM [inhibitor, single point]
CC(=O)c1c(-c2ccc(C)cc2)nc2c3ccccc3ccn12 | inconclusive: 37.9 µM [inhibitor, partial curve, poor fit]
O=C(O)c1ccc(NS(=O)(=O)c2cccc(C(=O)Nc3cccc(C(=O)O)c3)c2)cc1 | inconclusive: 37.9 µM [inhibitor, partial curve, poor fit]
Cc1nn(-c2ccccc2)c2nc(-c3ccncc3)cc(C(=O)NCc3ccco3)c12 | inconclusive: 21.3 µM [inhibitor, single point]
COC(=O)c1cccc(NC(=O)NC23CC4CC(CC(C4)C2)C3)c1 | active: 9.53 µM
COc1ccc(S(=O)(=O)c2c(O)c3ccc(C(=O)NCc4ccc(Cl)cc4)cc3[nH]c2=O)cc1 | inconclusive: 15.1 µM [inhibitor, partial curve]
CNc1c([N+](=O)[O-])cnn1-c1cccc(Cl)n1 | inactive
COc1ccc(-c2cc(C3CCN(CC(O)C(F)(F)F)CC3)[nH]n2)cc1 (stereo not given) | inconclusive: 37.9 µM [inhibitor, partial curve, poor fit]
Cc1ccc2nc(C)cc(C(=O)N3CCCC(CO)(Cc4ccccc4C)C3)c2c1 (stereo not given) | inactive
CCOc1ccccc1NC(=O)C(NCCN(C)C)c1ccccc1 (stereo not given) | inactive
Cc1cccc(N2C(=O)N3[C@@H]4c5ccccc5OC[C@@H]4[C@@H](c4ccccc4)[C@@]3(C)C2=O)c1 | inactive
C=CCc1ccccc1OCc1nc2ccccc2n1CC | inconclusive: 26.9 µM [inhibitor, partial curve, poor fit]
CN=C1S/C(=C\c2ccc(N3CCOCC3)cc2C)C(=O)N1C | inconclusive: 19 µM [inhibitor, partial curve, poor fit]
O=C(/C=C/c1ccccc1)N1CCN(c2cccc(Cl)n2)CC1 | inconclusive: 30.1 µM [inhibitor, single point]
Oc1ccc(-c2csc(Nc3ncccn3)n2)c(O)c1 | active: 3.01 µM
Cc1ccc(NC(=O)C2C3C=CC4(CN(Cc5cccnc5)C(=O)C24)O3)cc1 (stereo not given) | inconclusive: 37.9 µM [inhibitor, partial curve, poor fit]
Cn1c(-c2cccs2)nc2ccccc21 | inconclusive: 23.9 µM [inhibitor, partial curve]
CN(c1ccccc1)c1nc(N)c([N+](=O)[O-])c(N2CCCCCC2)n1 | inconclusive: 37.9 µM [inhibitor, single point]

Compound | Potency
COc1cccc(CNS(=O)(=O)c2ccc3c(c2)oc(=O)n3C)c1 | inactive
C/C(=N/NC(=O)c1ccc(C)s1)c1cccc(NC(=O)COc2ccc(Cl)cc2C)c1 | active: 5.36 µM
CC(=O)c1cccc(NC(=O)c2ccc(NC(=O)CC3SC(N4CCCCC4)=NC3=O)cc2)c1 (stereo not given) | inconclusive: 37.9 µM [inhibitor, single point]
O=c1c2cc(NC(=S)NC3CCCC3)ccc2nc2n1CCCCC2 | inconclusive: 37.9 µM [inhibitor, partial curve, poor fit]
C/C(=N\NC(=O)c1cccnc1)c1ccc(Br)cc1 | inconclusive: 37.9 µM [inhibitor, single point]
Cc1cc2nc(/N=C(\N)NC(=O)C(C)C)nc(C)c2cc1C | inconclusive: 23.9 µM [inhibitor, single point]
CC1(C)OC(c2ccccc2)=C/C(=C/C=C2C(=O)c3ccccc3C2=O)O1 | inconclusive: 13.5 µM [inhibitor, partial curve]
Cc1ccc2c(C)c(C(=O)N(C)C(C)c3ccon3)oc2c1C (stereo not given) | active: 15.1 µM
CCOc1ccc(-n2c(=S)sc3c(=O)n(-c4ccc(F)cc4)c(SCC(=O)O)nc32)cc1 | inactive
CC(=O)/C(C#N)=C1\NC(=O)C(Cc2ccc(C)c(Cl)c2)S1 (stereo not given) | inconclusive: 21.3 µM [inhibitor, single point]
Cc1csc(Nc2nc(N)c(C(=O)Nc3cc(Cl)ccc3F)o2)n1 | inconclusive: 37.9 µM [inhibitor, partial curve, poor fit]
Cc1ccccc1OCCCC(=O)NC1CCCCC1 | inconclusive: 30.1 µM [inhibitor, partial curve, poor fit]
CCN1CCN(c2nc3sc4c(c3c3ncnn23)CC(C)CC4)CC1 (stereo not given) | inconclusive: 37.9 µM [inhibitor, partial curve, poor fit]
FC(F)Oc1ccc(/C=N/n2c(Cc3ccc(Br)cc3)n[nH]c2=S)cc1 | inconclusive: 37.9 µM [inhibitor, partial curve, poor fit]
COc1ccc(C(=O)NNc2ncnc3c2cnn3-c2ccc(C)c(Cl)c2)cc1 | inconclusive: 10.7 µM [inhibitor, partial curve, poor fit]
Cc1nnc(SCc2nnc(-c3ccc(Cl)cc3)o2)n1-c1ccccc1 | inconclusive: 21.3 µM [inhibitor, partial curve, poor fit]
Cc1ccc(C(=O)O/N=C/c2c(C)nn(C)c2Cl)cc1 | active: 10.7 µM
CCOC(=O)c1sc(/N=C/Nc2nc(C)c(C(=O)OCC)s2)nc1C | inactive
Cc1ccc(-c2nn(-c3cccc(F)c3)cc2CN2CCN(c3ccccn3)CC2)o1 | inconclusive: 26.9 µM [inhibitor, partial curve, poor fit]
Cc1cc(C)n(-c2nc(-c3ccc(Cl)c(Cl)c3)cs2)n1 | inconclusive: 10.7 µM [inhibitor, partial curve]
COc1ccccc1NNC(=O)c1cc(C(C)(C)C)nn1Cc1ccccc1 | inconclusive: 23.9 µM [inhibitor, partial curve, poor fit]

Reference: PubChem BioAssay AID588342 (National Center for Advancing Translational Sciences (NCATS), 2011)
